Reference: publication PMC4791575 (ACS Infectious Diseases, 2016)

Legend:
Assay in all cases: microbe, parasite or virus in culture
P. falciparum W2 = assay type: cell-based, Plasmodium falciparum
T. brucei cells = assay type: cell-based, Trypanosoma brucei; settings: for EC50: Trypanosoma brucei, read-out: T. brucei pEC50 (within 46%) (converted)
L. major promastigotes = assay type: cell-based, Leishmania major; settings: for EC50: Leishmania major, read-out: Leishmania Promast pEC50 (converted)
P. falciparum C235 = assay type: cell-based, Plasmodium falciparum
[1] = test system: T. cruzi intracellular amastigotes (Tulahuen strain); assay type: cell-based; settings: Trypanosoma cruzi, read-out: T. cruzi pEC50 (μM) (within 21%) (converted)
[2] = test system: L. major intracellular amastigotes; assay type: cell-based, Leishmania major; settings: for EC50: Leishmania major, read-out: Leishmania Amast pEC50 (converted)
P. falciparum D6 = assay type: cell-based, Plasmodium falciparum; settings: for EC50: Plasmodium falciparum, D6, read-out: P. falciparum D6 pEC50 (converted)

Row | EC50 (P. falciparum W2; Plasmodium falciparum, W2, read-out: P. falciparum W2 pEC50 (converted)) | EC50 (L. major promastigotes) | EC50 (P. falciparum C235; Plasmodium falciparum, read-out: P. falciparum C235 pEC50 (converted)) | EC50 [2] | EC50 (P. falciparum D6) | P. falciparum W2 pEC50 (P. falciparum W2) | T. brucei pEC50 (within 46%) (T. brucei cells) | Leishmania Promast pEC50 (L. major promastigotes) | P. falciparum C235 pEC50 (P. falciparum C235) | Leishmania Amast pEC50 [2] | P. falciparum D6 pEC50 (P. falciparum D6) | SMILES | EC50 (T. brucei cells) | EC50 [1]
1 | 794 nM | 1580 nM | 316 nM | 2510 nM | 1260 nM |  |  |  |  |  |  | CCc1cnn2c(NCc3ccc[n+]([O-])c3)cc(N3CCCC[C@H]3CCO)nc12 [NEU-975, dinaciclib] | 39.8 nM | 0.1 µM
2 |  |  |  |  |  | 4.6 | 6.1 | <4.6 | 4.6 | <4.8 | 4.8 | O=C1NC(=O)C(c2ccccc2[N+](=O)[O-])=C1Nc1ccc(O)c(Cl)c1 [NEU-986, SB 41528622] |  | 
3 |  | 6310 nM |  | > 15800 nM | 794 nM |  |  |  |  |  |  | CC[C@H](CO)Nc1nc(NCc2ccccc2)c2ncn(C(C)C)c2n1 [NEU-977, roscovitine] | > 3160 nM | > 50.1 µM
